Experimental data taken from ChEMBL document CHEMBL4888484, “Replenishing the malaria drug discovery pipeline: Screening and hit evaluation of the MMV Hit Generation Library 1 (HGL1) against asexual blood stage Plasmodium falciparum ,using a nano luciferase reporter read-out” (2022).
The whole screen tested about 150,000 compounds, of which about 540 (0.36%) showed an effect of 50% or more. The list shows a part of the results.

What follows are compounds tested on Plasmodium falciparum (assay: Primary screen in NF54 nanoGlo assay, in single point, at 2uM, 72h; a lower Z score goes with more inhibition). Settings: timepoint 72 hour.
Format: functional, Erythrocyte

Structure (SMILES)	% Inhibition [%]	Z score
Cn1nc(C(=O)N2CCC(n3nc(C(F)(F)F)n(C)c3=O)CC2)ccc1=O	0	-0.03
COc1ccc(NC(C)=O)cc1NC(=O)N1CCC(=O)CC12CCC2	4	-0.51
O=C(NCCc1ncccn1)OCC(F)(F)F	5	-0.72
Cc1n[nH]cc1CNCC1(N2CCOCC2)CCCCC1	-4	0.86
COc1ccccc1CNC(=O)c1cnn2ccc(NC(C)=O)cc12	-9	1.34
O=C(NCC1CCN(c2ccccn2)CC1)Nc1cccs1	-14	2.11
Cc1nc(N2CCO[C@H](C3CC3)C2)ccc1Cl	-2	0.35
CN(CC(=O)Nc1ccc(F)cc1)C(=O)c1ccc2c(c1)CCCC2	-4	0.82
Fc1cc(-c2ccc(Cn3ccnc3)cc2)c2ncccc2c1	3	-0.6
CC1OCCC1NS(=O)(=O)c1cncc(F)c1 (stereo not drawn)	-1	0.09
CCCCCN(C)C(=O)c1cc(-c2ccc3ccccc3c2)on1	-9	1.47
CCn1c(C(C)Oc2ccccc2F)nnc1N1CCCC(S(C)(=O)=O)C1 (stereo not drawn)	-3	0.52
CCOc1ccccc1Nc1nc(O)nnc1C	-11	1.02
COC[C@@H](c1ccnn1C)n1cnc2ccncc2c1=O	-10	1.59
COc1ccc(CC(=O)Nc2c(C)n[nH]c2-n2cnnc2)cc1	-11	1.87
CC1(C)CN(C(=O)c2ccc3c(c2)OCC(=O)N3)CC[C@H]1C(F)(F)F	6	-0.81
Cc1cc([C@H]2C[C@H]3CC[C@@H](C2)N3C(=O)Cn2ccccc2=O)ccc1F	-1	0.16
Cc1ccc(NC(=O)N2CC(Cc3ccoc3)C2)c2[nH]ncc12	-5	0.57
CS(=O)(=O)CC[C@@H](C(=O)NC1CCCC1)N1C(=O)c2ccc(Br)cc2C1=O	-7	1.21
Cc1nnc(N(C)Cc2ccc(O)cc2)s1	-4	0.37
CC1CC(NC(=O)C2CC(O)CN2)CN1C1CC1 (stereo not drawn)	-1	0.11
O=C(Nc1ccccc1-c1nc2ccccc2s1)[C@@H]1Cc2ccccc2O1	-1	0.08

Structure (SMILES)	% Inhibition [%]	Z score
COc1ccc(F)c(NC(=O)N(CCO)C(C)C)c1	37	-0.92
O=C(NCc1ccccc1-c1ccsc1)c1ccno1	-6	1.17
CCOc1ccc(CN2C[C@@H](CO)[C@H](NC(=O)c3ccncc3)C2)cc1	-28	4.76
COc1ccc(Nc2nc(N3CCN(c4nc(-c5ccc(F)cc5)cs4)CC3)nc3ccccc23)c(OC)c1	4	-0.55
CC[C@H](OC1CCCCC1)C(=O)NCc1nnc(C(C)(C)C)s1	10	-1.74
Cc1ccc(C(=O)N(CC(N)=O)CC(C)C)c(Br)c1	-15	2.11
O=C1CCc2cc(S(=O)(=O)N3CCCC[C@@H]3Cn3ccnn3)ccc2N1	-10	1.23
CCOCC1CCN(C[C@H]2CCCN2C(=O)OC(C)(C)C)C1 (stereo partly drawn)	-10	1.97
CC1CCN(S(=O)(=O)c2ccc3c(c2)CCC(=O)N3CC(=O)Nc2cccnc2)CC1	-4	0.73
C=CCN(C(=O)c1ccnc(C)n1)c1nc2c(s1)CCCC2	-30	3.48
CN1CCN(C(=O)C2C3CCCC32)C(C)(C)C1=O (stereo not drawn)	-3	0.45
CCn1c(-c2cc(NC(=O)c3ccsc3)[nH]n2)cc2ccc(OC)cc21	14	-1.63
CC[C@@](C)(CCO)NC(=O)NC1CC1	-3	0.47
CC1(C)CC(=O)C2(Cc3ccccc3N3CCN(c4cccc(Cl)c4)C[C@H]32)C(=O)C1	28	-3.2
Cc1ccc(CNc2nnc(-c3cc(C)oc3C)o2)o1	0	0.04
COc1cccc(-c2n[nH]c(C3CC3)c2NC(=O)c2ccc(C(F)(F)F)cc2)c1	-11	1.94
CN(CCc1cnccn1)c1ccc(Br)c(C(F)(F)F)n1	-7	1.33
CCCCN(CC)C(=O)[C@@H]1Cc2[nH]cnc2C2(CCOCC2)N1	-9	1.45
Cc1occc1C(=O)NCCCn1ncc2c(Cl)cccc21	0	-0.05
Cc1ccc(OCCCN(C)C(=O)CCn2cncn2)cc1C	4	-0.76
CC[C@@H](C(=O)NCc1ccc(F)cc1)N(c1ccc(Cl)cc1)c1nc(-c2ccc(F)cc2)cs1	-11	1.24
c1cc(-c2noc(-c3ccoc3)n2)c2nccn2c1	33	-3.71
